# Paper PMC9911399, “Two distinct binding modes provide the RNA-binding protein RbFox with extraordinary sequence specificity”
# Positions count from the first letter of the chain named. Some of the results follow.
# B1: CGACAAG (DNA:RNA)
# RNA: GGGAGACCGGAAUUCAGAUUGUCCCGACAAGUUAAAUCCCGUCGUAGCCACCA
# DNA 1: CAATCTGAATTCCGGTCTCCC
# DNA 2: TGGTGGCTACGACGGGATT
# B2: GGUAGAG (DNA:RNA)
# RNA: B1 RNA with C25G, A27U, C28A, A29G
# DNA 1: CAATCTGAATTCCGGTCTCCC
# DNA 2: TGGTGGCTACGACGGGATT
# B3: AGGGGCC (DNA:RNA)
# RNA: B1 RNA with C25A, A27G, C28G, A29G, A30C, G31C
# DNA 1: CAATCTGAATTCCGGTCTCCC
# DNA 2: TGGTGGCTACGACGGGATT
# B4: GCACAGC (DNA:RNA)
# RNA: B1 RNA with C25G, G26C, A30G, G31C
# DNA 1: CAATCTGAATTCCGGTCTCCC
# DNA 2: TGGTGGCTACGACGGGATT
# B5: UGACAAG (DNA:RNA)
# RNA: B1 RNA with C25U
# DNA 1: CAATCTGAATTCCGGTCTCCC
# DNA 2: TGGTGGCTACGACGGGATT
# B6: UCGGACA (DNA:RNA)
# RNA: B1 RNA with C25U, G26C, A27G, C28G, A30C, G31A
# DNA 1: CAATCTGAATTCCGGTCTCCC
# DNA 2: TGGTGGCTACGACGGGATT
# B7: GCCUGUA (DNA:RNA)
# RNA: GGGAGACCGGAAUUCAGAUUGUCCGCCUGUAUUAAAUCCCGUCGUAGCCACCA
# DNA 1: CAATCTGAATTCCGGTCTCCC
# DNA 2: TGGTGGCTACGACGGGATT
# B8: CUACUGA (DNA:RNA)
# RNA: B1 RNA with G26U, A29U, A30G, G31A
# DNA 1: CAATCTGAATTCCGGTCTCCC
# DNA 2: TGGTGGCTACGACGGGATT
# B9: AAAUCUC (DNA:RNA)
# RNA: B7 RNA with G25A, C26A, C27A, G29C, A31C
# DNA 1: CAATCTGAATTCCGGTCTCCC
# DNA 2: TGGTGGCTACGACGGGATT
# B10: CAAUUGU (DNA:RNA)
# RNA: B1 RNA with G26A, C28U, A29U, A30G, G31U
# DNA 1: CAATCTGAATTCCGGTCTCCC
# DNA 2: TGGTGGCTACGACGGGATT
# B11: ACGGAGA (DNA:RNA)
# RNA: B7 RNA with G25A, C27G, U28G, G29A, U30G
# DNA 1: CAATCTGAATTCCGGTCTCCC
# DNA 2: TGGTGGCTACGACGGGATT
# B12: ACUCACG (DNA:RNA)
# RNA: B1 RNA with C25A, G26C, A27U, A30C
# DNA 1: CAATCTGAATTCCGGTCTCCC
# DNA 2: TGGTGGCTACGACGGGATT
# B13: AGAAAAC (DNA:RNA)
# RNA: B1 RNA with C25A, C28A, G31C
# DNA 1: CAATCTGAATTCCGGTCTCCC
# DNA 2: TGGTGGCTACGACGGGATT
# B14: AGCGGCU (DNA:RNA)
# RNA: B7 RNA with G25A, C26G, U28G, U30C, A31U
# DNA 1: CAATCTGAATTCCGGTCTCCC
# DNA 2: TGGTGGCTACGACGGGATT
# B15: CCUGCUC (DNA:RNA)
# RNA: B7 RNA with G25C, C27U, U28G, G29C, A31C
# DNA 1: CAATCTGAATTCCGGTCTCCC
# DNA 2: TGGTGGCTACGACGGGATT
# B16: CUGUCGU (DNA:RNA)
# RNA: B1 RNA with G26U, A27G, C28U, A29C, A30G, G31U
# DNA 1: CAATCTGAATTCCGGTCTCCC
# DNA 2: TGGTGGCTACGACGGGATT
# B17: UGUGCAA (DNA:RNA)
# RNA: B1 RNA with C25U, A27U, C28G, A29C, G31A
# DNA 1: CAATCTGAATTCCGGTCTCCC
# DNA 2: TGGTGGCTACGACGGGATT
# B18: CACGGCA (DNA:RNA)
# RNA: B7 RNA with G25C, C26A, U28G, U30C
# DNA 1: CAATCTGAATTCCGGTCTCCC
# DNA 2: TGGTGGCTACGACGGGATT
# B19: GUAACCC (DNA:RNA)
# RNA: B1 RNA with C25G, G26U, C28A, A29C, A30C, G31C
# DNA 1: CAATCTGAATTCCGGTCTCCC
# DNA 2: TGGTGGCTACGACGGGATT
# B20: GGGCGCG (DNA:RNA)
# RNA: B1 RNA with C25G, A27G, A29G, A30C
# DNA 1: CAATCTGAATTCCGGTCTCCC
# DNA 2: TGGTGGCTACGACGGGATT
# Target: T1, RBFOX1 RRM RbFoxmut (Fox-RRM*) (Homo sapiens, UniProt Q9NWB1 109-208, R118D;E147R;N151S;E152T)
# T1 sequence: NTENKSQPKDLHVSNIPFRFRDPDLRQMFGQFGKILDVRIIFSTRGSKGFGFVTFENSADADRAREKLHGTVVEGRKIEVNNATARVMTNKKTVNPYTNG
# Assay: EMSA; HiTS-Eq, 1 nM pool, 10 min; buffer printed only for the single-RNA assays: 10 mM Tris pH 7.5, 150 mM NaCl, 3.4 mM EDTA, 0.001% NP-40, 30 C
# Settings: tags: His6 N-terminal (pET28a); label: 5' 32P
# In short: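 Purified RbFox RRM, wild type or mutant, was incubated for 10 min in 50 µL with 1 nM of a 5′-radiolabelled RNA pool carrying 7 randomized nucleotides, whose flanks were annealed to DNA oligonucleotides, over a series of increasing protein concentrations. Unbound RNA was resolved on 8% native PAGE, cut out, reverse-transcribed, barcoded by PCR and sequenced on an Illumina HiSeq 2500. Relative association constants were derived from changes in read counts for each RNA species versus the control reaction and normalised to the cognate motif.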
row,Binder,binding signal
1,B1,0.0779 KA relative to UGCAUGU
2,B2,0.0945 KA relative to UGCAUGU
3,B3,0.241 KA relative to UGCAUGU
4,B4,0.0832 KA relative to UGCAUGU
5,B5,0.0763 KA relative to UGCAUGU
6,B6,0.0461 KA relative to UGCAUGU
7,B7,0.258 KA relative to UGCAUGU
8,B8,0.0724 KA relative to UGCAUGU
9,B9,0.0481 KA relative to UGCAUGU
10,B10,0.117 KA relative to UGCAUGU
11,B11,0.0992 KA relative to UGCAUGU
12,B12,0.121 KA relative to UGCAUGU
13,B13,0.0897 KA relative to UGCAUGU
14,B14,0.1 KA relative to UGCAUGU
15,B15,0.0784 KA relative to UGCAUGU
16,B16,0.138 KA relative to UGCAUGU
17,B17,0.0708 KA relative to UGCAUGU
18,B18,0.111 KA relative to UGCAUGU
19,B19,0.063 KA relative to UGCAUGU
20,B20,0.186 KA relative to UGCAUGU
